Data on 91 compounds can be found in PubChem BioAssay AID463173 (ICCB-Longwood Screening Facility, Harvard Medical School, 2010).

Screen size: about 52,000 compounds; about 4,300 (8.3%) were called active. Rule as the data show it: active = survival mostly below about 52% (no sharp cut-off); inactive = mostly above about 56%. This is one part of the list.

This assay has as its system DeltatarO mutant. The assay is described as follows: growth inhibition of S. aureus wild type versus tarO mutant, primary screen, teichoic acid synthesis inhibitors, RN4220, OD600 (AID 463173). The following applies: OD600, 18 h, stronger effect = lower value, screened at 18.75 µg/mL (by protocol).
`Cc1ccc(-c2c(CN3CCN(c4cccc(C)c4C)CC3)csc2C)cc1`: the survival was active: 21%.

On to `COc1ccc(-n2nc(C(=O)NCCc3ccc(Cl)cc3)c3c4ccccc4n(C)c3c2=O)cc1`, for which the survival was inactive: 71%.

`COc1ccc(C2c3c(-c4ccccc4)n[nH]c3C(=O)N2c2ccc(C(=O)O)cc2)c(OC)c1` (stereo unspecified): the survival was inactive: 96%.

Turning to `Cc1ccc(NC(=O)Cn2c(=O)n(CCC(=O)N3CCc4ccccc4C3)c(=O)c3ccccc32)c(C)c1`, the survival was inactive: 105%.

For the compound `COc1cc(NC(=O)Cn2c(-c3ccccc3)cc(C(C)=O)c2C)cc(OC)c1`, the survival was inactive: 83%.

With `Cc1ccc(-c2cnc(C3CC3)o2)cc1S(=O)(=O)Nc1cccc(C#N)c1`, the survival is inactive: 123%.

Take `Cc1nc2c3ccccc3nc(NNC(=O)CCC(=O)O)n2n1`: the survival was inactive: 94%.

In the case of `Cc1ccc(NC(=O)CN2C(=O)CCSc3ccccc32)c(C)c1`, the survival is inactive: 79%.

Turning to `COc1ccc(CCNC(=O)c2ccc3c(c2)nc(C)n3-c2ccc(Br)cc2)cc1OC`, the survival is inactive: 54%.

For `O=C(O)c1ccc(NC(=O)c2ccc(Cl)c(S(=O)(=O)N3CCCCCC3)c2)cc1`, the survival is inactive: 131%.

Regarding `CN(C1CCCCC1)S(=O)(=O)c1ccc2c(c1)c(=O)c(C(=O)N1CCN(c3ccccc3)CC1)cn2C`, the survival was inactive: 86%.

As to `O=S(=O)(NCCS(=O)(=O)N1CCN(c2ccccc2)CC1)c1ccccc1`, the survival is inactive: 81%.

As to `COC(=O)c1ccc(NC(=O)C(C)Sc2nc(=O)cc(N)n2CCc2ccccc2)cc1` (stereo unspecified), the survival is inactive: 122%.

As for `CCC(=O)Nn1cnc2c(c1=O)C1(CCCCC1)Cc1ccccc1-2`, the survival was inactive: 62%.

With `Cc1nn(CCC(=O)Nc2ccc(Cl)cc2)c(C)c1S(=O)(=O)N1CCCCC1`, the survival was inactive: 122%.

Turning to `COc1ccccc1Cn1cc(C(=O)c2ccccc2)c(=O)c2cc(OC)c(OC)cc21`, the survival was active: 23%.

For `COc1ccc(-c2cc(C(=O)Nc3cc(C(F)(F)F)ccc3Cl)no2)cc1`, the survival was inactive: 47%.

With `N#CC1=C(N)OC2=C(C(=O)CCC2)C1c1ccoc1` (stereo unspecified), the survival was inactive: 74%.

With `CCOc1ccc(C(=O)Nc2ccc(-c3cc4ccccc4oc3=O)cc2)cc1Br`, the survival is inactive: 84%.

Regarding `CN(C)c1ccc(CNC(=O)C2CCN(c3nnc(-n4cccc4)s3)CC2)cc1`, the survival is inactive: 73%.

Regarding `O=C(Nc1ccc(Cl)cc1Cl)c1cc(S(=O)(=O)NCc2ccc3c(c2)OCO3)ccc1F`, the survival is inactive: 94%.

`Cn1c(=O)c2c(nc3n2Cc2c(Cl)cccc2N3CCNC(=O)C2CCC2)n(C)c1=O`: the survival was inactive: 98%.

Regarding `Cc1ccccc1NC(=O)c1cc2c([nH]c1=O)CC(C)(C)CC2=O`, the survival is inactive: 92%.

Turning to `COCCNC(=O)CSc1c(C)cnc2c1c(=O)n(C)c(=O)n2C`, the survival is inactive: 85%.

`Cc1ccc(NC(=O)Cn2cnc3c(oc4ccccc43)c2=O)cc1Cl`: the survival is inactive: 82%.

Consider `COc1ccc(NC(=O)CCCOc2cc(=O)n(C)c3ccccc23)c(OC)c1`, for which the survival is inactive: 145%.

As to `Cn1c(NCc2cccc(Cl)c2)nc2ccccc21`, the survival is inactive: 104%.

Turning to `CCCn1c2ccccc2c2cnn(CC(=O)NCCc3ccc(S(N)(=O)=O)cc3)c(=O)c21`, the survival was inactive: 130%.

Consider `CC1CCC(=O)C(C2(O)C(=O)Nc3ccccc32)C1` (stereo unspecified), for which the survival is inactive: 93%.

On to `CCc1cccc(NC(=O)C2CCN(S(=O)(=O)c3ccc(Br)s3)CC2)c1`, for which the survival was inactive: 93%.

`COc1cc(OC)c(NC(=O)C2=C(C)C(=O)OC23CCN(C(C)=O)CC3)cc1Cl`: the survival was inactive: 75%.

Regarding `Cc1ccc(CSc2nc3cccnc3n2Cc2ccc(C(=O)NC3CC3)cc2)cc1`, the survival is inactive: 75%.

For the compound `O=C(NCc1ccccc1)c1cccn1-c1nnc(N2CCCCC2)s1`, the survival was inactive: 92%.

For the compound `Cc1ccc(C)c(NC(=O)Nc2cc3c(cc2N2CCCCC2)n(C)c(=O)n3C)c1`, the survival was inactive: 90%.

With `COc1ccc(Cn2c(C(=O)O)c(CNCc3ccco3)c3ccc(C)cc32)cc1`, the survival is inactive: 83%.

Consider `O=C1Nc2ccc(S(=O)(=O)Nc3ccccc3)c3cccc1c23`, for which the survival was inactive: 101%.

Turning to `CCSc1nnc(C2CCCN(Cc3cccnc3)C2)n1C(C)C` (stereo unspecified), the survival is inactive: 80%.

On to `CCOc1ccccc1CNC(=O)c1cnn(-c2ccc(C)cc2)c1-n1cccc1`, for which the survival is active: 37%.

For `Nc1n[nH]c(CCc2ccccc2)n1`, the survival was inactive: 93%.

Consider `CC1CCCCN1CCNC(=O)c1ccc(Cn2c(SCc3ccccc3)nc3cccnc32)cc1` (stereo unspecified), for which the survival was inactive: 116%.

In the case of `Cc1nn(-c2ccc(N3CCOCC3)nn2)c(C)c1CCC(=O)NCc1ccc(Cl)cc1`, the survival is inactive: 107%.

With `O=C(COc1ccc(Cl)cc1)N1CCCCC1`, the survival was inactive: 83%.

For `CCS(=O)(=O)c1ncc(Cl)c(C(=O)Nc2ccc(S(=O)(=O)N(C)c3ccccc3)cc2)n1`, the survival was active: 0%.

Take `Cn1c(=O)c2c(n3nnnc13)-c1ccccc1CC21CCCC1`: the survival is inactive: 110%.

For `Cc1cccc(C)c1Nc1sc(C(=O)c2ccccc2)c(N)c1S(=O)(=O)c1ccccc1`, the survival was inactive: 92%.

As to `CCN1CCN(C(C)C(=O)NC(c2ccccc2)c2ccccc2)CC1` (stereo unspecified), the survival is inactive: 78%.

Consider `COc1ccc2nc3sc(C(=O)NCCc4ccc(Cl)cc4)cc3cc2c1`, for which the survival is inactive: 103%.

Turning to `COc1ccccc1C(=O)Nc1nnc(SCc2cc(=O)c3ccccc3[nH]2)s1`, the survival was inactive: 96%.

On to `CCOc1ccc(NC(=O)c2cc3cc4ccc(C)cc4nc3o2)cc1`, for which the survival is inactive: 83%.

Turning to `Brc1cccc(-c2nnn3c2nc(NC2CCCCC2)c2ccccc23)c1`, the survival was inactive: 64%.

Take `N#C/C(=C\c1cn(CC(=O)N2CCCC2)c2ccccc12)C(=O)NC1CC1`: the survival is inactive: 75%.

Regarding `Cc1ccc(-n2c(=O)c3ccc(C(=O)NCc4ccco4)cc3n(Cc3ccccc3Cl)c2=O)cc1`, the survival is inactive: 99%.

As for `CCOC(=O)c1c(-c2cccs2)csc1NC(C)=O`, the survival is inactive: 69%.

In the case of `O=C(CSc1ncccn1)N1CCc2ccccc2C1`, the survival is inactive: 93%.

In the case of `COc1cccc(C=Nc2ccc3c(c2)ncn3C)c1OC`, the survival is inactive: 84%.

With `Cc1ccc(C(=O)NCC(c2ccc(Cl)cc2)N2CCCCC2)cc1` (stereo unspecified), the survival is inactive: 64%.

On to `COCCCNC(=O)CCCn1c(SCC(=O)c2ccc(Br)cc2)nc2c(sc3ccccc32)c1=O`, for which the survival was inactive: 58%.

For the compound `CCc1ccc(NC(=O)C2CCCN(S(=O)(=O)c3ccc4c(c3)oc(=O)n4C)C2)cc1` (stereo unspecified), the survival is inactive: 89%.

Consider `CCOc1ccc(C(=O)N2CC(=O)Nc3ccc(C)cc3C2c2ccc(F)cc2)cc1OCC` (stereo unspecified), for which the survival is inactive: 67%.

For `COc1cccc(CNC(=O)c2cccc(N3CCCS3(=O)=O)c2)c1`, the survival is inactive: 79%.

Consider `Cc1ccc(Cl)c2sc(NC(=O)c3ccc(S(=O)(=O)N4CCCC4)cc3)nc12`, for which the survival is inactive: 63%.

As to `Cc1ccc(CNc2ccc(N3CCOCC3)cc2)cc1`, the survival is inactive: 78%.

`Cc1cc(Nc2ccccc2C)c2cccc(C)c2n1`: the survival is inactive: 62%.

`CCC(C)n1c(SCC(=O)Nc2ccccc2C(=O)OC)nc2ccsc2c1=O` (stereo unspecified): the survival was active: 17%.

`O=C(NCc1c(-n2cccc2)sc2c1CCCC2)Nc1cccc(C(F)(F)F)c1`: the survival is inactive: 75%.

For the compound `Cn1c(Cc2ccccc2)nnc1SCC#N`, the survival is inactive: 97%.

Regarding `O=C(CSc1nccn1Cc1ccc2c(c1)OCO2)Nc1ccccc1F`, the survival is inactive: 83%.

Turning to `Cc1nn(-c2ccccc2)c2[nH]c(=O)c(CNc3ccccc3)cc12`, the survival was inactive: 83%.

On to `COc1cc(NC(=O)CCn2nc(C)cc2C)cc(OC)c1OC`, for which the survival was inactive: 78%.

For `CCCn1c(=O)sc2cc(NC(=O)c3ccccc3Cl)ccc21`, the survival was inactive: 61%.

On to `Cc1ccc(-c2noc(CNC(C)C)n2)cc1`, for which the survival was inactive: 77%.

As to `COc1ccc(-c2cc(C(=O)Nc3ccc4c(c3)OCO4)no2)cc1`, the survival is inactive: 50%.

Consider `CCC1CCCCN1CCCNC(=O)c1cn(C)c2ccc(S(=O)(=O)N(C)C3CCCCC3)cc2c1=O` (stereo unspecified), for which the survival was inactive: 90%.

`COc1cccc(N2CCN(C(=O)c3cccn3-c3nnc(N4CCCCC4)s3)CC2)c1`: the survival is inactive: 107%.

Consider `COc1cccc(NC(=O)c2oc3ccc(S(=O)(=O)N(C)C4CCCCC4)cc3c2C)c1`, for which the survival is inactive: 90%.

Consider `CC(C)(C)OC(=O)N1CCC(c2c(C(=O)N3CCCCC3)cnn2-c2ccc(F)cc2)CC1`, for which the survival is inactive: 93%.

`Cc1ccc(C)c(NC(=O)CSc2nc3ccccc3nc2N2CCOCC2)c1`: the survival was inactive: 85%.

For `CCSc1ccccc1C(=O)N1CCN(c2nc3ccccc3s2)CC1`, the survival was inactive: 92%.

In the case of `CCc1nn(CC(=O)NCCc2ccc(Cl)cc2)c(=O)c2cc3c(OC)cccc3n12`, the survival is inactive: 75%.

With `COc1ccccc1C(=O)Nc1cccc(OCc2cc(=O)n3ccccc3n2)c1`, the survival is inactive: 94%.

On to `COC(=O)c1ccc(NC(=O)c2cnn(-c3ccc(Cl)cc3)c2C2CCN(C(=O)OC(C)(C)C)CC2)cc1`, for which the survival is inactive: 86%.

`Cc1cc(C)c(NC(=O)c2cc(C)nc3c2c(C)nn3-c2cccc(F)c2)c(C)c1`: the survival is inactive: 94%.

With `CCc1ccc(-c2nn(-c3ccc(OC)cc3)c3c2cnc2ccc(OC)cc23)cc1`, the survival is active: 14%.

As to `CCN(CC)C(=O)c1c(NC(=O)c2ccccc2F)sc2c1CCC(C(C)(C)C)C2` (stereo unspecified), the survival was active: -8%.

For the compound `CCn1c(O)c(C=Nc2cccc(O)c2)sc1=S`, the survival is inactive: 82%.

As to `COc1cc(OC)cc(C(=O)Nc2nc(-c3nnn(-c4ccc(C)cc4)c3C)ns2)c1`, the survival was inactive: 118%.

Take `CCOC(=O)C1=C(CN2CCC(C)CC2)NC(=O)NC1c1ccc(OC(C)C)cc1` (stereo unspecified): the survival was inactive: 80%.

With `COc1cc(/C=C(/C#N)c2nc(-c3cc4ccccc4oc3=O)cs2)ccc1O`, the survival is inactive: 104%.

As to `Cc1c(Cl)cccc1NC(=O)Nc1c[nH]c(=O)[nH]c1=O`, the survival was inactive: 90%.

Consider `Cc1cccc(NC(=O)CSc2nc3c([nH]c4ccccc43)c(=O)n2-c2cc(C)cc(C)c2)c1`, for which the survival was inactive: 94%.

Regarding `COc1cccc(C=Nc2cccc3c(=O)[nH][nH]c(=O)c23)c1O`, the survival was inactive: 56%.
